# Measurements taken from patent US20170173134A1 (priority 2011, published 2017).
# Legend:
# HPV (HPV 11, HPV 16/18) = experiment: Table 8-B: HPV detection and viral typing by PCR (Kit Amplicor); parameters: species or system human; settings: in vivo
# Experimental: The patients underwent routine examinations before the clinical trial for evaluation of the degree of dysplasia (Papanicolaou test) and cervical smears were taken for human papilloma virus (HPV) testing and typing.
# Periodicity: Collection of cervical smear for the test and classification of dysplasia and HPV were performed in the pretreatment period (basal) and 6 months after the end of the clinical trial.
# [1] = tested on: MNU-induced cancerous lesions of the urinary bladder; experiment: Table 6-B: histological assessment, saline versus Poloxamer formulation; type: in vivo, Fischer 344 rats
# Experimental: Fifty (50) Fischer 344 rats, aged 7 weeks, weighing in average 150 grams were used in this experiment.
# All the animals (Fischer 344 rats), except for the untreated control group (Table 6B-Group A), were subjected to applications of 1.5 mg/kg of n-methyl-n-nitrosourea (MNU) dissolved in 0.30 ml of sodium citrate, intravesically, using a catheter (for insertion in the bladder) for 7 weeks for bladder cancer induction. After administration of MNU the animals were divided into 5 groups of 10 animals each.
# One group (untreated control) of 10 animals was given only saline solution (NaCl 0.9%) also intravesically and for an equal period (Table 6B-Group A).
# All the compounds were intravesically inoculated, with a catheter (for insertion into the bladder) for this purpose, for 6 consecutive weeks, for comparative assessment in the treatment of MNU-induced cancerous lesions.
# [2] = tested on: MNU-induced urinary bladder carcinoma; type: in vivo, rats
# [3] = tested on: 53 tumor cell cultures representing 8 distinct tumor types and leukemia; settings: cited from earlier work
# [4] = tested on: bladder cancer induced by MNU; type: in vivo, Fischer rats
# cervical dysplasia = experiment: Table 8-B: clinical trial in HPV-related cervical dysplasia, Papanicolaou classification; type: in vivo, human
# Text: All patients had previous history of routine surgical procedures for removal of the damaged tissue (electrocauterization) in the months prior to the clinical trial, with recurrence of dysplasia and infection in all the cases. The patients underwent routine examinations before the clinical trial for evaluation of the degree of dysplasia (Papanicolaou test) and cervical smears were taken for human papilloma virus (HPV) testing and typing. […] Periodicity: Collection of cervical smear for the test and classification of dysplasia and HPV were performed in the pretreatment period (basal) and 6 months after the end of the clinical trial. Characterization of the sample: Patients previously treated with surgery (electrocauterization) and showing signs of recurrent cervical dysplasia, classified by the Papanicolaou test as moderate to severe dysplasias, upon admission to the clinical trial (Table 8-A). Clinical trial design: All patients underwent the same surgical procedure, that is, electrocauterization for removal of the abnormal tissue (dysplasia). […] Follow-up: All patients were followed monthly through clinical examinations and colposcopy.
# [5] = tested on: MNU-induced cancerous lesions of the urinary bladder; type: in vivo, Fischer 344 rats; settings: n = 10
# [6] = n = 10
# [7] = tested on: MNU-induced urinary bladder carcinoma; experiment: Second experiment (Table 5): histological assessment, MNU-induced bladder cancer; type: in vivo, rats
# Experimental: The therapeutic effect in urinary bladder cancer in animals was assessed by histological evaluation of the tissues. The criteria for assessing normality of the tissues examined for all the experiments using the same animal model, that is, the experiments reported in Table 4, Table 5, Table 6-A, Table 6-B, Table 6-C and Table 6-D are: normal tissue, flat hyperplasia, papillary hyperplasia.
# Flat hyperplasia and papillary hyperplasia are reactive changes of an inflammatory nature, though benign, and their occurrence in the experiments for assessment of new drugs in animals affected with cancer, indicates a reversal of the cancer process to non-cancerous stages.
# Metaplasia is defined as the replacement of a normal functional tissue with another tissue with different structure, with loss of function, and, thus, is considered a form of premalignant lesion.
# […] animals (n=50) were used in the experiment. The therapeutic effect was assessed through histological assessment of tissues, and the toxicological effect of the compounds, through assessment of the presence or absence of urinary bleeding also called hematuria.
# All the animals in the experiment were subjected to intravesical applications of 1.5 mg/kg of n-methyl-n-nitrosourea (MNU) dissolved in 0.30 mL of sodium citrate, using a catheter, for 7 weeks. One group (control) of 10 animals was given only saline solution ([…]), also intravesically and for an equal period.
# The purpose of using n-methyl-n-nitrosourea (MNU) was to experimentally induce immunosuppression and subsequently producing urinary bladder carcinoma. After treatment with MNU, the animals were divided into 05 groups of 10 animals each. […]
# For the histological examinations, sections (2 μm) of the tissue of the urinary bladder were cut using microtome Zeiss, mounted on microscope slides, and stained with hematoxylin-eosin (HE), for subsequent pathology assessment, quantification of cellular changes and comparison between control and treatment groups.
# [8] = n = 10; remark: listed apart in the source
# [9] = 10 mg/kg intravesical, 14 weeks; n = 10
# [10] = tested on: MNU-induced bladder cancer; type: in vivo, female Fischer 344 rats
# [11] = Table 5 experiment, intravesical
substance,measurement,setting,value
proteic aggregate of ammonium and magnesium phospholinoleate-palmitoleate anhydride [immunomodulator],"Number of patients without dysplasia, HPV type associated HPV 11","HPV (HPV 11, HPV 16/18)",3
same,"Number of patients without dysplasia, HPV type associated HPV 16/18","HPV (HPV 11, HPV 16/18)",2
same,patients who still had HPV,"HPV (HPV 11, HPV 16/18)",5
same,Toxicology: (Hematuria),N = 10,Positive
same,"Toxicology: (Hematuria), % of animals",N = 10,(100%)
same,Toxicology: (Hematuria),n = 10,Negative
same,"Toxicology: (Hematuria), % of animals",n = 10,(0%)
same,lowest concentration experimentally obtained to produce therapeutic effects with topical use,[1]; even using Poloxamers as carriers,1 mg/mL
same,tumor reversion,"[1]; topical use 10 mg/kg in saline, Group C Table 6-B",90%
same,"Flat hyperplasia, animals",[2]; n = 10,06 (60%)
same,"High-grade intra-epithelial carcinoma (carcinoma in situ-Tis), animals","[2]; rat, in vivo",01 (10%)
same,"Low grade Intraepithelial neoplasia, animals","[2]; rat, in vivo",04 (40%)
same,"Papillary carcinoma (Ta), animals","[2]; rat, in vivo",01 (10%)
same,"Papillary hyperplasia, animals","[2]; rat, in vivo",02 (10%)
same,"Squamous metaplasia, animals","[2]; rat, in vivo",02 (20%)
same,animals with positive result / positive outcome (histopathology),"[2]; rat, in vivo",80%
same,Cytotoxicity,[3],did not display cytotoxicity
same,"Flat Hyperplasia, number of animals",[4]; n = 6,2 and 1
same,"Low-grade Intraurothelial Neoplasia, number of animals",[4]; n = 6,1
same,"Normal, number of animals",[4]; n = 6,2
same,"Papillary hyperplasia, number of animals",[4]; n = 6,2
same,recurrent or refractory / malignant lesions,"[4]; rat, in vivo",17%
same,responders (absence of malignant lesions),"[4]; rat, in vivo",83%
same,"Number of patients without dysplasia (mild, moderate, severe) and without HPV type associated","cervical dysplasia; 180 days after the end, electrocauterization + topical cream 20% daily intrauterine for 2 weeks, 25 patients",20
same,recurrence rate of cervical dysplasia,"cervical dysplasia; associated to surgery (electrocauterization), 180 days after the end of the clinical trial",0%
same,"Flat hyperplasia, animals",[5],4(40%)
same,"Normal, animals",[5],3(30%)
same,"Papillary hyperplasia, animals",[5],3(30%)
same,Toxicology: Presence of hematuria,[6],Negative
same,"Toxicology: Presence of hematuria, % of animals",[6],(0%)
same,"Flat hyperplasia, animals","[7]; MNU-induced bladder cancer, 10 mg/kg intravesical (topical application), 14 weeks, n = 10",05 (50%) n (%)
same,animals that had hyperplasia,[7]; [11],70%
same,therapeutic effectiveness / efficacy,[7]; [11],~100%
same,"Toxicology: (Hematuria), presence",[8],No
same,Toxicology: (Hematuria),[9],Negative
same,"Toxicology: (Hematuria), % of animals",[9],(0%)
same,"Flat Hyperplasia, number of animals",[10]; n = 10,4
same,"Normal, number of animals",[10]; n = 10,4
same,"Papillary hyperplasia, number of animals",[10]; n = 10,2
same,success rate / responders,"[10]; rat, in vivo",100%

# “And” between values parts separate entries of the source, which are not always exact repeats. Equal values may be shown once. Read-outs that look alike come from different tables or passages of the source.
